Experimental data taken from paper PMC4336329 (PLoS ONE, 2015).
Among all 310,000 compounds or so, about 2,200 (0.71%) showed an effect of 50% or more. The effect is printed as a negative number. The list shows a part of the results.

target: human ether-à-go-go-related gene (hERG) potassium channel (human, UniProt Q12809); assay: primary screen, population patch clamp on CHO cells stably expressing hERG
Sequence (Q12809 whole entry, looked up): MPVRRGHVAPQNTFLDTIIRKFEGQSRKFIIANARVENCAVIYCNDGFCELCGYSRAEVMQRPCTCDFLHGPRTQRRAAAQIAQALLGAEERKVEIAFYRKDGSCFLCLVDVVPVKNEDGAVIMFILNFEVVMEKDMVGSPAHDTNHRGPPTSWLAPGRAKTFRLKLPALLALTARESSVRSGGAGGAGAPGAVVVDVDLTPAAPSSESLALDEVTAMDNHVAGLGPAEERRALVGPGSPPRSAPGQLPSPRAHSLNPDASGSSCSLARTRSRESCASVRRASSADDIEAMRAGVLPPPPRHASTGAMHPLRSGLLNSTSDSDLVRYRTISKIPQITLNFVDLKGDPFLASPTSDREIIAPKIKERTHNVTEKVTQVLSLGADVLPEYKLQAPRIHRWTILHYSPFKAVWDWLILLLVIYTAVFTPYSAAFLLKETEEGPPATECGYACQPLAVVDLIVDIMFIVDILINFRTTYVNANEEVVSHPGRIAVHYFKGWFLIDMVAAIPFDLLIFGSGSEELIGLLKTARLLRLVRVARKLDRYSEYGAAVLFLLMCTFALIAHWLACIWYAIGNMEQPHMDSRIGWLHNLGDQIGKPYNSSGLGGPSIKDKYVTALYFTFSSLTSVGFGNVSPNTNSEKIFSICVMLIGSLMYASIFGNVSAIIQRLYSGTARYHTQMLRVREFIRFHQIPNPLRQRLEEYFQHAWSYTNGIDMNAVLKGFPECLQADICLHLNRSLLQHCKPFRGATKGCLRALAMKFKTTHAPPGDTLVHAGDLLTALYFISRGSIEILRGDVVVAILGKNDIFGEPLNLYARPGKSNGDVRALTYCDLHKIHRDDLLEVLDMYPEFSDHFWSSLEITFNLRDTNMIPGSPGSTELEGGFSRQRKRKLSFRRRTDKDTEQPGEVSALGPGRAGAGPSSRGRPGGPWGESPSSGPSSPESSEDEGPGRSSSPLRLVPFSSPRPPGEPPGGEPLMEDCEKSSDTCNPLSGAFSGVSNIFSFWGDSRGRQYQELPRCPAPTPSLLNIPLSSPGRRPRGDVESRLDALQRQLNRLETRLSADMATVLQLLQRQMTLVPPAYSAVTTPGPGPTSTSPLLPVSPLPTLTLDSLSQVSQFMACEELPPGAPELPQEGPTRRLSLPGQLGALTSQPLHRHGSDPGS

Row | SMILES | hERG current change (%, negative = inhibition) at 1uM
1 | Cc1cc(C)cc(N2C(=O)NC(=O)/C(=C/c3cccn3-c3ccc(Cl)cc3)C2=O)c1 | 11.8%
2 | CC(C)C(=O)NNC(=O)c1ccccn1 | 12.3%
3 | OCCC1CN(CC#Cc2ccccc2)CCN1Cc1ccccc1F (centres unmarked) | 11.1%
4 | COc1ccc(-n2c(-c3ccco3)nc3c(cnn3-c3ccccc3C)c2=O)cc1 | 5.76%
5 | CN(C)c1ccc(/C=C(\C#N)c2ccccn2)cc1 | 2.79%
6 | Nc1ccc(C(=O)N2CCCC2)cc1CS(=O)(=O)c1ccc(Cl)cc1 | 7.63%
7 | Cc1ccc2c(c1)/C(=N/N1C(=O)c3ccccc3C1=O)C(=O)N2 | 10.3%
8 | CCc1n(CC(O)COCc2ccccc2)c2ccccc2[n+]1C.[I-] (centres unmarked) | 6.34%
9 | CCCCn1c(N)c(N(CCOC)C(=O)COC(=O)COc2ccc(CC)cc2)c(=O)[nH]c1=O | 3.58%
10 | CCN1CCN(CC(O)COCc2cc(OC)c(OC)c(OC)c2)CC1.Cl (centres unmarked) | 15.6%
11 | CCN1CCN(Cc2nc3c(c(=O)n(C)c(=O)n3C)n2Cc2cccc3ccccc23)CC1 | -8.57%
12 | CC(Sc1nc(-c2ccccc2)cc(C(F)(F)F)n1)C(=O)N1CCC(C(N)=O)CC1 (centres unmarked) | -1.28%
13 | CCOCCCNC(=O)C(NC(=O)c1ccccc1O)c1ccc(Cl)cc1 (centres unmarked) | 14.7%
14 | Cc1ccc(-c2nnc(SCC(=O)O)n2N)cc1 | 4.19%
15 | Cc1ccc(SCC(=O)Nc2ccc(S(N)(=O)=O)cc2)cc1 | 10.5%
16 | CCCCn1nnc(NC(=O)c2ccco2)n1 | 12.1%
17 | CC(C)NC(=O)NC(=O)CSc1nncs1 | 13.5%
18 | CN(Cc1c(C(=O)N/N=C/c2cccs2)nnn1-c1nonc1N)c1ccccc1 | 7.76%
19 | CC(=O)N1CCCc2ccc(NS(=O)(=O)c3ccc(C)cc3)cc21 | 5.39%
20 | O=C1C2CCCN2C(=O)N1CCCCN1CCN(c2cccc(C(F)(F)F)c2)CC1 (centres unmarked) | -9.12%

Row | SMILES | hERG current change (%, negative = inhibition) at 1uM
21 | CCOCCCNCc1ccc(OC)cc1.O=C(O)C(=O)O | 12.4%
22 | O=C(Cn1nnc(-c2ccc(NC(=O)c3ccccc3F)cc2)n1)NCc1ccc(F)cc1 | -2.01%
23 | Cc1c(O)ccc(C(=O)CN2CCN(c3ccccc3F)CC2)c1O | 16.2%
24 | O=C(CSc1ccc2nnc(-c3ccccn3)n2n1)NCc1ccco1 | -28.9%
25 | CC1(C)C(=O)Nc2ccccc2N1C(=O)COC(=O)CSc1ccc(Cl)cc1 | 13.6%
26 | COc1cccc2c1OC1(C)CC2NC(=O)N1 (centres unmarked) | -4.29%
27 | Cc1cc(C)c(OCC(=O)OCC(=O)NCC2CCCCC2)c(C)c1 | 10.2%
28 | Cc1cc(F)ccc1NC(=O)c1cc(S(=O)(=O)N2CCc3ccccc32)cn1C | -5.75%
29 | CCn1c(NC(=O)c2cccc(Cn3cc(Cl)cn3)c2)nc2ccccc21 | -2.58%
30 | CC(C)CC(=O)Nc1cccc(C(C)O)c1 (centres unmarked) | 9.91%
31 | O=C1NC(=O)c2cc(NC(=O)C3CCCCC3)ccc21 | 0.799%
32 | Cn1ccnc1C(O)c1ccccc1 (centres unmarked) | 9.58%
33 | Br.CCc1ccc(C(=O)CN2CCSC2=N)cc1 | -2.25%
34 | Nc1nnc(SCC(=O)c2ccc([N+](=O)[O-])cc2)s1 | 5.75%
35 | Nc1ccc(C(=O)N/N=C/c2cn(Cc3ccccc3F)c3ccccc23)cc1 | 15.6%
36 | NC(=S)Nc1cccc(F)c1 | 8.41%
37 | Cc1nc2c(F)c(F)c(C(F)(F)F)c(F)c2[nH]1 | 4.67%
38 | Cn1cnc([N+](=O)[O-])c1Nc1ccccc1O | 10.2%
39 | COc1ccc(S(=O)(=O)N2CCN(C(=O)CC(C)C)CC2)cc1 | 7.86%
40 | CN(C)S(=O)(=O)Nc1ccccn1 | 10%

Row | SMILES | hERG current change (%, negative = inhibition) at 1uM
41 | CCOC(=O)c1ccc(NC(=O)CCc2nnc3ccc(N4CCN(C)CC4)nn23)cc1 | 13.7%
42 | CN1/C(=C\C(=O)c2cncc(Br)c2)C(C)(C)c2ccccc21 | 1.95%
43 | CNC(=O)c1sc(-c2ccc(Cl)cc2)nc1C | 4.98%
44 | Cc1ccc(C(=O)NCc2ccco2)cc1S(=O)(=O)Nc1cccc(C)c1C | -3.54%
45 | O=C(O)CSc1nnc(COc2cccc3cccnc23)n1-c1ccc(Cl)cc1 | 9.7%
46 | CN(CC(=O)N1CCN(Cc2ccccc2)CC1)S(=O)(=O)c1ccc(F)cc1 | -7.88%
47 | Cc1ccc(Cn2ccc(NC(=O)c3cc4nc(-c5ccco5)cc(C(F)(F)F)n4n3)n2)cc1 | 3.18%
48 | O=C(Cc1cccs1)Nc1cccc(-c2nc3cc4ccccc4cc3[nH]2)c1 | 12.1%
49 | Br.O=C(Cn1c(NCCCO)nc2ccccc21)c1cccc(Br)c1 | 4.14%
50 | c1cnc(-c2nnc3n2CCCCC3)cn1 | 15.1%
51 | C=CCOc1ccc(Br)cc1CNCCO.Cl | 8.78%
52 | CCOc1ccc(N2C(=O)CC(N(C)Cc3ccccc3)C2=O)cc1 (centres unmarked) | 11.9%
53 | COc1ccc(OCC(O)CNCc2ccco2)cc1 (centres unmarked) | 3.44%
54 | Cc1cccc(C)c1Nc1nnc(SCC(=O)Nc2sccc2C#N)s1 | -0.121%
55 | Cc1cc(=O)[nH]c(-n2[nH]c3c(c2=O)CCCC3)n1 | 9.61%
56 | N#CCCn1c(=O)n(CCC#N)c2ccccc21 | 5.04%
57 | CC(C)Cn1c(=O)c(C(=O)NCc2ccccn2)c(O)c2ccccc21 | 13.1%
58 | O=C(c1ccco1)N1CCN(Cc2cc(=O)c(OCc3ccc(F)cc3)co2)CC1 | -5.67%
59 | O=C(N/N=C/C=C\c1ccccc1[N+](=O)[O-])c1cc(-c2ccccc2)nc2ccccc12 | 9.06%
